# The list shows a part of the results.
# B1: BC2LB (Burholderia cenocepacia), B4EH85_BURCJ (protein)
# chain: MGSSHHHHHHSSGENLYFQGHMSQPFTHDDLYALLQLAGNDATAVQANGDQAVLDRMRQFMTAQLVEKLPQYDVFVDIATIPYSFDVGSWQNKVKTDAAGEVVACTVTWAGAPGVLPGAAAKFGVGAVVNYFSKATPH
# Columns and labels:
# Assay in all cases: glycan array binding signal (z-score within array); higher = stronger binding
# Conditions in all cases: glycan notation: IUPAC condensed, linker removed
# [1] = target: Neu5Ac(a2-6)GlcNAc(b1-4)GlcNAc
# In short: (§1)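 Arrays were curated from the Consortium for Functional Glycomics database, 3228 in total, and kept only where the protein sequence was available. Binding is expressed as a within-array Z-score. This score was averaged across arrays of the same protein sequence at different concentrations or buffers and across linkers, and negative values can be read as non-binding.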
# [2] = target: Neu5Ac(a2-6)GlcNAc(b1-4)GlcNAc(b1-4)GlcNAc
# In short: as §1
# Neu5Ac(a2-8)Neu5Ac = target: Neu5Ac(a2-8)Neu5Ac
# In short: as §1
# [3] = target: Neu5Ac(a2-8)Neu5Ac(a2-3)Gal(b1-3)GalNAc(b1-4)[Neu5Ac(a2-3)]Gal(b1-4)Glc
# In short: as §1
# [4] = target: Neu5Ac(a2-8)Neu5Ac(a2-3)Gal(b1-3)GalNAc(b1-4)[Neu5Ac(a2-8)Neu5Ac(a2-3)]Gal(b1-4)Glc
# In short: as §1
# [5] = target: Neu5Ac(a2-8)Neu5Ac(a2-3)Gal(b1-4)Glc
# In short: as §1
# [6] = target: Neu5Ac(a2-8)Neu5Ac(a2-3)Gal(b1-4)GlcNAc
# In short: as §1
# [7] = target: Neu5Ac(a2-8)Neu5Ac(a2-3)[Gal(b1-3)GalNAc(b1-4)]Gal(b1-4)Glc
# In short: as §1
# [8] = target: Neu5Ac(a2-8)Neu5Ac(a2-3)[GalNAc(b1-4)]Gal(b1-4)Glc
# In short: as §1
# [9] = target: Neu5Ac(a2-8)Neu5Ac(a2-8)Neu5Ac
# In short: as §1
# [10] = target: Neu5Ac(a2-8)Neu5Ac(a2-8)Neu5Ac(a2-3)Gal(b1-4)Glc
# In short: as §1
# [11] = target: Neu5Ac(a2-8)Neu5Ac(a2-8)Neu5Ac(a2-3)[Gal(b1-3)GalNAc(b1-4)]Gal(b1-4)Glc
# In short: as §1
# [12] = target: Neu5Ac(a2-8)Neu5Ac(a2-8)Neu5Ac(a2-3)[GalNAc(b1-4)]Gal(b1-4)Glc
# In short: as §1
# [13] = target: Neu5Ac(a2-8)Neu5Ac(a2-8)Neu5Ac(a2-8)Neu5Ac(a2-3)[GalNAc(b1-4)]Gal(b1-4)Glc
# In short: as §1
# [14] = target: Neu5Ac(a2-8)Neu5Gc(a2-3)Gal(b1-4)GlcNAc
# In short: as §1
# [15] = target: Neu5Ac(b2-6)Gal(b1-4)GlcNAc
# In short: as §1
# Neu5Ac(b2-6)GalNAc = target: Neu5Ac(b2-6)GalNAc
# In short: as §1
# [16] = target: Neu5Ac9Ac(a2-3)Gal(b1-3)GlcNAc
# In short: as §1
# [17] = target: Neu5Ac9Ac(a2-3)Gal(b1-4)GlcNAc
# In short: as §1
# [18] = target: Neu5Ac9Ac(a2-6)Gal(b1-4)GlcNAc
# In short: as §1
# [19] = target: Neu5Gc(a2-3)Gal(b1-3)GlcNAc
# In short: as §1
# [20] = target: Neu5Gc(a2-3)Gal(b1-3)[Fuc(a1-4)]GlcNAc
# In short: as §1
# Neu5Gc(a2-3)Gal(b1-4)Glc = target: Neu5Gc(a2-3)Gal(b1-4)Glc
# In short: as §1
# [21] = target: Neu5Gc(a2-3)Gal(b1-4)GlcNAc
# In short: as §1
# [22] = target: Neu5Gc(a2-3)Gal(b1-4)GlcNAc(b1-3)Gal(b1-4)GlcNAc(b1-2)Man(a1-3)[Neu5Gc(a2-3)Gal(b1-4)GlcNAc(b1-3)Gal(b1-4)GlcNAc(b1-2)Man(a1-6)]Man(b1-4)GlcNAc(b1-4)GlcNAc
# In short: as §1
# [23] = target: Neu5Gc(a2-3)Gal(b1-4)[Fuc(a1-3)]GlcNAc
# In short: as §1
# [24] = target: Neu5Gc(a2-6)Gal(b1-4)GlcNAc
# In short: as §1
# Neu5Gc(a2-6)GalNAc = target: Neu5Gc(a2-6)GalNAc
# In short: as §1
# [25] = target: Neu5Gc(a2-8)Neu5Ac(a2-3)Gal(b1-4)GlcNAc
# In short: as §1
# [26] = target: Neu5Gc(a2-8)Neu5Gc(a2-3)Gal(b1-4)GlcNAc
# In short: as §1
# [27] = target: Neu5Gc(a2-8)Neu5Gc(a2-3)Gal(b1-4)GlcNAc(b1-3)Gal(b1-4)GlcNAc
# In short: as §1
# [28] = target: Neu5Gc(a2-8)Neu5Gc(a2-6)Gal(b1-4)GlcNAc
# In short: as §1
# [29] = target: Neu5Gc(b2-6)Gal(b1-4)GlcNAc
# In short: as §1
binder,measurement,setting,value
B1,glycan array binding signal (z-score),[1],-0.297
same,glycan array binding signal (z-score),[2],-0.338
same,glycan array binding signal (z-score),Neu5Ac(a2-8)Neu5Ac,-0.116
same,glycan array binding signal (z-score),[3],-0.191
same,glycan array binding signal (z-score),[4],-0.329
same,glycan array binding signal (z-score),[5],-0.306
same,glycan array binding signal (z-score),[6],-0.282
same,glycan array binding signal (z-score),[7],-0.226
same,glycan array binding signal (z-score),[8],-0.29
same,glycan array binding signal (z-score),[9],-0.251
same,glycan array binding signal (z-score),[10],-0.259
same,glycan array binding signal (z-score),[11],-0.227
same,glycan array binding signal (z-score),[12],-0.306
same,glycan array binding signal (z-score),[13],-0.178
same,glycan array binding signal (z-score),[14],-0.421
same,glycan array binding signal (z-score),[15],-0.283
same,glycan array binding signal (z-score),Neu5Ac(b2-6)GalNAc,-0.331
same,glycan array binding signal (z-score),[16],-0.007
same,glycan array binding signal (z-score),[17],-0.284
same,glycan array binding signal (z-score),[18],-0.108
same,glycan array binding signal (z-score),[19],0.437
same,glycan array binding signal (z-score),[20],-0.249
same,glycan array binding signal (z-score),Neu5Gc(a2-3)Gal(b1-4)Glc,1.13
same,glycan array binding signal (z-score),[21],0.007
same,glycan array binding signal (z-score),[22],-0.198
same,glycan array binding signal (z-score),[23],-0.092
same,glycan array binding signal (z-score),[24],-0.13
same,glycan array binding signal (z-score),Neu5Gc(a2-6)GalNAc,0.6
same,glycan array binding signal (z-score),[25],-0.298
same,glycan array binding signal (z-score),[26],-0.307
same,glycan array binding signal (z-score),[27],-0.34
same,glycan array binding signal (z-score),[28],-0.248
same,glycan array binding signal (z-score),[29],-0.265

# Source: the supplement of paper PMC8728848
